# According to PMC6919601, “Identification of Plasmodium dipeptidyl aminopeptidase allosteric inhibitors by high throughput screening” (PLoS ONE, 2019):
# Values joined by “and” are separate entries in the source; they are usually repeats but may differ in a detail not shown here. Equal values may be shown once. Hit rate of the full screen: of about 110,000 compounds, about 230 (0.21%) showed an effect of 50% or more. This is one part of the list.
# Molecular target: DPAP1 (Plasmodium falciparum, UniProt Q8IIJ9)
# Sequence (Q8IIJ9 whole entry, looked up): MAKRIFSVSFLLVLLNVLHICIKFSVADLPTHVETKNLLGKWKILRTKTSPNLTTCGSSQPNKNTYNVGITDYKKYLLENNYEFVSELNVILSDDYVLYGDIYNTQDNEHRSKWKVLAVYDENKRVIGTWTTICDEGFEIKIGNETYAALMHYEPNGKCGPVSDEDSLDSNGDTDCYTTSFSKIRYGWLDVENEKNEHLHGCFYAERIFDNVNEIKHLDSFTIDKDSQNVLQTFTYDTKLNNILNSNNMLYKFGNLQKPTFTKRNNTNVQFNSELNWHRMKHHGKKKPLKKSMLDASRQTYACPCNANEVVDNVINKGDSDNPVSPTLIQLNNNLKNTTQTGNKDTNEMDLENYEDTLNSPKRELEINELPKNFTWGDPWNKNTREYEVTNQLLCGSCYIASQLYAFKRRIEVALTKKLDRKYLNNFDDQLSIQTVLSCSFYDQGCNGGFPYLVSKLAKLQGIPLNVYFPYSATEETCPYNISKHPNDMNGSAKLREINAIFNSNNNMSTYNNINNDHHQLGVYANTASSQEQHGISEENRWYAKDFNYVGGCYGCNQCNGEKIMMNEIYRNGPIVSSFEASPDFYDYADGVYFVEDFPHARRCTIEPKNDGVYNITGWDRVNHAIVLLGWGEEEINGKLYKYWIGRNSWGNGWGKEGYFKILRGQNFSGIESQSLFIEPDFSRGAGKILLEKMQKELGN
# Test: primary screen, percent inhibition; read by cleavage of a fluorogenic dipeptide substrate; higher = more effect of the substance
# Parameters: species or system P. falciparum D10 trophozoite lysates; single well
# 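Also: 30 min substrate incubation versus DMSO and 10 µM JCP410 controls.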
row,SMILES,% Inhibition @ 10 uM
1,CCOC(=O)c1[nH]c(C)c(C(=O)NC(C)CCc2ccccc2)c1C (stereo not drawn),1.72%
2,Cc1cc(C)cc(NC(=O)c2ccc(-c3ccccc3)cc2)c1,5.29%
3,COc1ccc(-c2cc(C(=O)Nc3ccccc3O)c3ccccc3n2)cc1,7.42%
4,CC(C)C1=NN2C(=N)/C(=C/c3ccc(-c4cccc(C(=O)O)c4)o3)C(=O)N=C2S1,-1.06%
5,CN1C(=O)CC2(CC(=O)N(Cc3ccccc3)C2)C1=O (stereo not drawn),2.92%
6,O=C(O)/C=C\C(=O)Nc1ccc(Cl)c(Cl)c1,3.1%
7,O=C(c1ccc([N+](=O)[O-])c(Br)c1)N(c1ccccn1)c1ccccn1,-5.23%
8,Cc1oc(-c2ccc(Cl)cc2)nc1CS(=O)CC(=O)N1CCC2(CC1)OCCO2 (stereo not drawn),-1.05%
9,Cc1ccc2c(=O)cc(C(=O)Nc3sc4c(c3C(=O)NCc3ccccc3)CCCC4)oc2c1,-1.47%
10,Cc1cccc(-n2nnc(C(=O)NCCc3ccc(Cl)cc3)c2N)c1,1.58%
11,COc1ccc(Cl)cc1C(=O)Nc1ccc(N(C)C)cc1,-1.2%
12,Cc1cc(C)n2nc(SCC(=O)N(C)c3ccccc3)nc2n1,-7.09%
13,C=CCNC(=O)C1CC(c2ccccc2OC)=NO1 (stereo not drawn),6.22%
14,CN(CC(=O)NCc1ccccc1Cl)S(=O)(=O)c1cccc2nsnc12,0.317%
15,O=C1c2ccccc2-c2nc3ncnn3c(-c3ccc(F)cc3)c21,-2.68%
16,CCc1ccc(C2c3c(oc4ccccc4c3=O)C(=O)N2c2nnc(C(C)C)s2)cc1 (stereo not drawn),5.78%
17,COc1cc(/C=C2\Sc3ccccc3C2=O)cc(Cl)c1O,-1.25%
18,Cc1ccccc1-n1nnc(-c2nc(-c3ccccc3F)no2)c1N,1.13%
19,COc1ccc(C2CC(=O)C(/C=N/c3cc(C)cc(C)c3)=C(O)C2)cc1OC (stereo not drawn),1.35%
20,O=C(NCc1ccccc1Cl)C(NS(=O)(=O)c1cccc2nsnc12)c1ccccc1 (stereo not drawn),-3.23%
21,COc1ccc(S(=O)(=O)N2CCc3ccccc3C2)cc1,2.01%
22,COc1ccc(S(=O)(=O)N(C)CC(=O)N2CCN(c3ccccc3)CC2)cc1OC,2.84%
23,CNc1cnn(C23CC4CC(CC(CC(=O)O)(C4)C2)C3)c(=O)c1Cl,0.0579%
24,COc1ccc(NC(=O)COc2cc(C)ccc2C)cc1,-5.13%
25,CC(C)c1cc(C(N)=O)c(NC(=O)Cc2ccc(Cl)c(Cl)c2)s1,-5.81%

row,SMILES,% Inhibition @ 10 uM
1,COc1ccc2cc([C@H](C)OC(=O)c3c(C)ncc4c3COC(C)OC4)ccc2c1 (stereo partly drawn),4.94%
2,O=C(O)c1ccc(/C=C2/NC(=O)N(Cc3ccc(F)cc3)C2=O)cc1,-3.45%
3,Cc1ccc(S(N)(=O)=O)cc1NC(=O)Nc1ccc(Cl)c(Cl)c1,5.97%
4,COc1ccc(OCC(O)CN2CCC(C)CC2)cc1 (stereo not drawn),-0.268%
5,CC1(C)CC(=O)C2=C(C1)N(c1sc3c(c1C#N)CCCC3)C(N)=C(C#N)C2c1ccc2c(c1)OCO2 (stereo not drawn),-6.17%
6,Cc1cc(C)c2c(n1)SCC(=O)N2CCCC(=O)NCCCN1CC(C)CC(C)C1 (stereo not drawn),-6.01%
7,O=C(Nc1ccccc1)c1ccccc1NC(=O)c1ccccc1C(=O)O,3.83%
8,CCSc1nnc(NC(=O)C2Cc3ccc(C)cc3C(=O)O2)s1 (stereo not drawn),5.12%
9,CNCc1ccccc1Sc1cc(O)ccc1O,-3.65%
10,CC1CC(C)CN(c2ncnc3onc(-c4ccc(F)cc4)c23)C1 (stereo not drawn),3.6%
11,O=C1NC(=O)/C(=C/c2ccccc2OCc2ccccc2)S1,-4.18%
12,O=C(Nc1ccc(Cl)cc1)c1ccc2nc3ccccc3nc2c1,-3.79%
13,CCCc1[nH]nc2c1C(c1ccccc1)C(C#N)=C(N)O2 (stereo not drawn),0.673%
14,CN(C)CCCNC(=O)c1ccc(Cl)cc1Cl,-1.6%
15,FC(F)(F)c1ccc2nnc(-c3cccc(Cl)c3Cl)n2c1,-3.09%
16,Cc1ccc(N2CCN(CCCCN3C(=O)C4CCCN4C3=O)CC2)cc1 (stereo not drawn),-1.38%
17,CCN1CCN(c2sc(S(=O)(=O)CC)nc2S(=O)(=O)c2ccc(Cl)cc2)CC1,-4.04%
18,N=c1oc2ccc([N+](=O)[O-])cc2cc1C(N)=O,4.88%
19,Cc1ccccc1N(CC(=O)Nc1ccc2c(c1)OCO2)S(=O)(=O)c1ccccc1,-1.55% and 1.02%
20,C(=C\c1cc(-c2ccccc2)[nH]n1)/c1ccccc1,3.01%
21,COc1ccc(NC(=O)c2ccc(OC)c(OC)c2)c(OC)c1,13.5%
22,Cc1cccn2c(=O)c(/C=C(\C#N)C(=O)NCCCOC(C)C)c(Oc3ccccc3)nc12,0.101%
23,CCCCOc1ccc(C(=O)Nc2cc(C)ccn2)cc1,5.98%
24,COc1cc(OC)c(OC)cc1CN1CCC(O)CC1,3.1%
25,CCN1CCN(Cc2ccccc2)CC1,3.9%

row,SMILES,% Inhibition @ 10 uM
1,Nc1cccc(-c2cc(C(=O)O)c3cc(Br)ccc3n2)c1,1.59%
2,CC(C)CC(NC(=O)c1ccc(NC(=O)NCCc2c[nH]c3ccccc23)cc1)C(=O)NCC#N (stereo not drawn),-11%
3,CCc1nc2cccnc2n1-c1ccc(C(=O)N2CCN(C(=O)c3ccco3)CC2)cc1,-3.29%
4,CC(C)(C)S(=O)(=O)c1ccc(N)nc1,-0.0372%
5,Cc1ccccc1CSc1nnc(-c2ccccc2)c(O)n1,-0.0626%
6,COc1ccc(S(=O)(=O)N2CCN(Cc3cc(OC)c(OC)cc3OC)CC2)cc1,-1.2%
7,O=S(=O)(NCC1CCCCC1)c1ccc(-n2cnnn2)cc1,-4.67%
8,Cc1ccnc(NS(=O)(=O)c2ccc(Br)cc2)c1,-2.03%
9,CC(C)c1ccc(CN(C(=O)c2cc(=O)c3ccccc3o2)C2CCS(=O)(=O)C2)cc1 (stereo not drawn),1.9%
10,Cc1cccc(Oc2nc3c(C)cccn3c(=O)c2/C=C(\C#N)C(=O)N2CCCCC2)c1C,-5.1%
11,COc1ccc(C(=O)c2nc3c(n2O)CCCC3)cc1OC,-5.51%
12,c1ccc(CCSCc2nc3ccccc3[nH]2)cc1,7.77%
13,CCOC(=O)C1=C(C)NC(=O)N(C(C)=O)C1c1cccc(Oc2ccccc2)c1 (stereo not drawn),-5.63%
14,O=C(O)C1CC(O)CN1Cc1ccccc1 (stereo not drawn),3.01%
15,O=C(NCc1cccc(Cl)c1)c1ccc(-n2cnc3cccnc32)cc1,3.54%
16,COc1ccccc1CC(=O)N(Cc1nc(-c2cccc(C)c2)no1)C(C)C,-8.56%
17,CCc1n(CC(O)COc2ccccc2OC)c2ccccc2[n+]1C (stereo not drawn),13.1%
18,COc1cccc(N(CC(=O)Nc2ccccc2Br)S(=O)(=O)c2ccccc2)c1,-1.43%
19,CCCc1nc2nc(C)c(NS(=O)(=O)c3ccc(Br)cc3)c(O)n2n1,2.5%
20,C=CCc1cc(/C=C2/SC(NC(C)=O)=NC2=O)cc(OCC)c1O,2.63%
21,CCCCSc1nnc(NC(=O)c2cc(=O)c3ccccc3o2)s1,0.248%
22,CC(C)(C)c1[nH]nc2c1C(c1ccccc1)C(C#N)=C(N)O2 (stereo not drawn),-4.41%
23,NC(=O)c1c(NC(=O)Cn2c(=O)oc3ccccc32)sc2c1CCCC2,-2.77%
24,O=C(Cn1sc2ccccc2c1=O)NCc1cccs1,-10.4%
25,N#Cc1cc2c(nc1SCCCN1C(=O)c3ccccc3C1=O)CCC2,1.57%

row,SMILES,% Inhibition @ 10 uM
1,CCc1ccc(N2C(=O)c3ccc(NC(C)=O)cc3C2=O)cc1,0.431%
2,O=C(Cn1c(C(F)(F)F)nc2ccccc21)NCCc1ccccc1,2.99%
3,CCOc1cc2c(cc1/C=C(\C#N)c1cccc(C(F)(F)F)c1)OCO2,4.85%
4,Cc1ccccc1OCC(=O)Nc1cccc2ccccc12,-4.06%
5,O=C(Cc1ccc(Br)cc1)N1CCN(c2ccc(F)cc2)CC1,-1.36%
6,COc1ccc(OC)c(CCNC(=O)C(C)n2nc(C)c3c(C)n(-c4ccccc4)nc3c2=O)c1 (stereo not drawn),2.65%
7,COc1ccc(C2C(=O)N(CCc3ccccc3)CC(=O)N2C2CCCCCCC2)cc1 (stereo not drawn),-2.26%
8,Cc1cccc(Cc2c(C)nc3nc(SCC(=O)NCc4ccco4)nn3c2C)c1,-0.363%
9,CCN(CC)c1ccc(C2C(C(=O)OC)=C(C)N=C(C)/C2=C(/O)OC)cc1 (stereo not drawn),0.392%
10,CC(=O)N1CN(C2CC(C)(C)NC(C)(C)C2)Cc2c1sc1c2CCCC1,-2.05%
11,Fc1ccccc1OCCCCN1CCCCC1,-4.58%
12,C=CCN1C(=O)N/C(=C/c2cc(Cl)c(O)c(OC)c2)C1=O,-3.29%
13,Cc1ccc(NC(=O)COc2ccc(Br)cc2)c(Br)c1,7.39%
14,CN(C)CCCN(C(=O)c1ccc(Cl)s1)c1nc2cc3c(cc2s1)OCO3,-4.05%
15,CCN1C(=O)C(=CNc2ccccc2-c2ccccc2)C(=O)N(CC)C1=O,-2.87%
16,CCOC(=O)c1c(S(=O)(=O)NCCc2ccc(C)cc2)c(C)n(C)c1C,5.01%
17,Cc1ccc(S(=O)(=O)NCc2ccc(C(=O)NC(C)c3ccc4c(c3)OCCO4)cc2)cc1 (stereo not drawn),11.1%
18,O=C(CNC(=O)Cn1ccc2ccccc2c1=O)NCc1ccc(F)cc1,-3.27%
19,COc1cccc(-c2[nH]c3c(C#N)cnn3c2NCCC(C)C)c1,76.4%
20,CCCn1c2ccccc2c2cnn(CC(=O)N(CCCOCC)Cc3ccco3)c(=O)c21,3.72%
21,CSc1nc2n(n1)C(c1ccc(Cl)cc1)C1=C(O)CC(C)(C)CC1=N2 (stereo not drawn),-0.68%
22,Cc1c(C(=O)/C=C/c2ccc(Br)cc2)c2cc(O)ccc2n1C,-0.687%
23,Cc1nnc2[nH]c(=O)n(C)c(=O)c2n1,0.569%
24,CCC(Sc1nc(O)c(C#N)c(-c2ccc(OC)cc2)n1)C(=O)Nc1cc(C)on1 (stereo not drawn),-4.12%
